This is one part of the list.
Key:
Test in all cases: glycan array binding signal (z-score within array); higher = stronger binding
Conditions in all cases: glycan notation: IUPAC condensed, linker removed
[1] = molecular target: Neu5Ac(a2-3)Gal(b1-4)GlcNAc(b1-2)[Neu5Ac(a2-3)Gal(b1-4)GlcNAc(b1-4)]Man(a1-3)[GlcNAc(b1-4)][Neu5Ac(a2-3)Gal(b1-4)GlcNAc(b1-4)Man(a1-6)]Man(b1-4)GlcNAc(b1-4)GlcNAc
How it was run: (§1)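 Arrays were curated from the Consortium for Functional Glycomics database, 3228 in total, and kept only where the protein sequence was available. Binding is expressed as a within-array Z-score. This score was averaged across arrays of the same protein sequence at different concentrations or buffers and across linkers, and negative values can be read as non-binding.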

[2] = molecular target: Neu5Ac(a2-3)Gal(b1-4)GlcNAc(b1-2)[Neu5Ac(a2-3)Gal(b1-4)GlcNAc(b1-6)]Man(a1-6)[Neu5Ac(a2-3)Gal(b1-4)GlcNAc(b1-2)Man(a1-3)]Man(b1-4)GlcNAc(b1-4)GlcNAc
How it was run: as §1

[3] = molecular target: Neu5Ac(a2-3)Gal(b1-4)GlcNAc(b1-2)[Neu5Ac(a2-3)Gal(b1-4)GlcNAc(b1-6)]Man(a1-6)[Neu5Ac(a2-3)Gal(b1-4)GlcNAc(b1-2)Man(a1-3)][GlcNAc(b1-4)]Man(b1-4)GlcNAc(b1-4)GlcNAc
How it was run: as §1

[4] = molecular target: Neu5Ac(a2-3)Gal(b1-4)GlcNAc(b1-3)Gal
How it was run: as §1

[5] = molecular target: Neu5Ac(a2-3)Gal(b1-4)GlcNAc(b1-3)Gal(b1-3)GlcNAc
How it was run: as §1

[6] = molecular target: Neu5Ac(a2-3)Gal(b1-4)GlcNAc(b1-3)Gal(b1-4)GlcNAc
How it was run: as §1

[7] = molecular target: Neu5Ac(a2-3)Gal(b1-4)GlcNAc(b1-3)Gal(b1-4)GlcNAc(b1-2)Man(a1-3)[Neu5Ac(a2-3)Gal(b1-4)GlcNAc(b1-3)Gal(b1-4)GlcNAc(b1-2)Man(a1-6)]Man(b1-4)GlcNAc(b1-4)GlcNAc
How it was run: as §1

[8] = molecular target: Neu5Ac(a2-3)Gal(b1-4)GlcNAc(b1-3)Gal(b1-4)GlcNAc(b1-3)Gal(b1-4)GlcNAc
How it was run: as §1

[9] = molecular target: Neu5Ac(a2-3)Gal(b1-4)GlcNAc(b1-3)Gal(b1-4)GlcNAc(b1-3)Gal(b1-4)GlcNAc(b1-2)Man(a1-3)[Neu5Ac(a2-3)Gal(b1-4)GlcNAc(b1-3)Gal(b1-4)GlcNAc(b1-3)Gal(b1-4)GlcNAc(b1-2)Man(a1-6)]GalNAc
How it was run: as §1

[10] = molecular target: Neu5Ac(a2-3)Gal(b1-4)GlcNAc(b1-3)Gal(b1-4)GlcNAc(b1-3)GalNAc
How it was run: as §1

[11] = molecular target: Neu5Ac(a2-3)Gal(b1-4)GlcNAc(b1-3)Gal(b1-4)GlcNAc(b1-3)[Neu5Ac(a2-3)Gal(b1-4)GlcNAc(b1-3)Gal(b1-4)GlcNAc(b1-6)]GalNAc
How it was run: as §1

[12] = molecular target: Neu5Ac(a2-3)Gal(b1-4)GlcNAc(b1-3)Gal(b1-4)GlcNAc(b1-6)[Gal(b1-3)]GalNAc
How it was run: as §1

[13] = molecular target: Neu5Ac(a2-3)Gal(b1-4)GlcNAc(b1-3)Gal(b1-4)[Fuc(a1-3)]GlcNAc
How it was run: as §1

[14] = molecular target: Neu5Ac(a2-3)Gal(b1-4)GlcNAc(b1-3)GalNAc
How it was run: as §1

[15] = molecular target: Neu5Ac(a2-3)Gal(b1-4)GlcNAc(b1-3)[Neu5Ac(a2-3)Gal(b1-4)GlcNAc(b1-6)]GalNAc
How it was run: as §1

[16] = molecular target: Neu5Ac(a2-3)Gal(b1-4)GlcNAc(b1-6)GalNAc
How it was run: as §1

[17] = molecular target: Neu5Ac(a2-3)Gal(b1-4)GlcNAc(b1-6)[Gal(b1-3)]GalNAc
How it was run: as §1

[18] = molecular target: Neu5Ac(a2-3)Gal(b1-4)GlcNAc(b1-6)[Neu5Ac(a2-3)Gal(b1-3)]GalNAc
How it was run: as §1

[19] = molecular target: Neu5Ac(a2-3)Gal(b1-4)GlcNAc6S
How it was run: as §1

[20] = molecular target: Neu5Ac(a2-3)Gal(b1-4)[Fuc(a1-3)]GlcNAc
How it was run: as §1

[21] = molecular target: Neu5Ac(a2-3)Gal(b1-4)[Fuc(a1-3)]GlcNAc(b1-2)Man
How it was run: as §1

[22] = molecular target: Neu5Ac(a2-3)Gal(b1-4)[Fuc(a1-3)]GlcNAc(b1-3)Gal
How it was run: as §1

[23] = molecular target: Neu5Ac(a2-3)Gal(b1-4)[Fuc(a1-3)]GlcNAc(b1-3)Gal(b1-4)GlcNAc
How it was run: as §1

[24] = molecular target: Neu5Ac(a2-3)Gal(b1-4)[Fuc(a1-3)]GlcNAc(b1-3)Gal(b1-4)[Fuc(a1-3)]GlcNAc(b1-3)Gal(b1-4)[Fuc(a1-3)]GlcNAc
How it was run: as §1

[25] = molecular target: Neu5Ac(a2-3)Gal(b1-4)[Fuc(a1-3)]GlcNAc(b1-3)GalNAc
How it was run: as §1

[26] = molecular target: Neu5Ac(a2-3)Gal(b1-4)[Fuc(a1-3)]GlcNAc(b1-6)[Gal(b1-3)]GalNAc
How it was run: as §1

[27] = molecular target: Neu5Ac(a2-3)Gal(b1-4)[Fuc(a1-3)]GlcNAc(b1-6)[Neu5Ac(a2-3)Gal(b1-3)]GalNAc
How it was run: as §1

[28] = molecular target: Neu5Ac(a2-3)Gal(b1-4)[Fuc(a1-3)]GlcNAc6S
How it was run: as §1

[29] = molecular target: Neu5Ac(a2-3)Gal6S(b1-4)GlcNAc
How it was run: as §1

[30] = molecular target: Neu5Ac(a2-3)Gal6S(b1-4)[Fuc(a1-3)]GlcNAc
How it was run: as §1

Neu5Ac(a2-3)GalNAc = molecular target: Neu5Ac(a2-3)GalNAc
How it was run: as §1

[31] = molecular target: Neu5Ac(a2-3)GalNAc(b1-4)GlcNAc
How it was run: as §1

[32] = molecular target: Neu5Ac(a2-3)[GalNAc(b1-4)]Gal(b1-4)Glc
How it was run: as §1

[33] = molecular target: Neu5Ac(a2-3)[GalNAc(b1-4)]Gal(b1-4)GlcNAc
How it was run: as §1

[34] = molecular target: Neu5Ac(a2-3)[GalNAc(b1-4)]Gal(b1-4)GlcNAc(b1-3)GalNAc
How it was run: as §1

[35] = molecular target: Neu5Ac(a2-3)[Neu5Ac(a2-6)]GalNAc
How it was run: as §1

Neu5Ac(a2-6)Gal = molecular target: Neu5Ac(a2-6)Gal
How it was run: as §1

[36] = molecular target: Neu5Ac(a2-6)Gal(b1-3)GlcNAc(b1-3)[Gal(b1-4)GlcNAc(b1-6)]Gal(b1-4)Glc
How it was run: as §1

Neu5Ac(a2-6)Gal(b1-4)Glc = molecular target: Neu5Ac(a2-6)Gal(b1-4)Glc
How it was run: as §1

[37] = molecular target: Neu5Ac(a2-6)Gal(b1-4)GlcNAc
How it was run: as §1

[38] = molecular target: Neu5Ac(a2-6)Gal(b1-4)GlcNAc(b1-2)Man
How it was run: as §1

[39] = molecular target: Neu5Ac(a2-6)Gal(b1-4)GlcNAc(b1-2)Man(a1-3)Man(b1-4)GlcNAc(b1-4)GlcNAc
How it was run: as §1

[40] = molecular target: Neu5Ac(a2-6)Gal(b1-4)GlcNAc(b1-2)Man(a1-3)[Gal(b1-4)GlcNAc(b1-2)Man(a1-6)]Man(b1-4)GlcNAc(b1-4)GlcNAc
How it was run: as §1

[41] = molecular target: Neu5Ac(a2-6)Gal(b1-4)GlcNAc(b1-2)Man(a1-3)[GlcNAc(b1-2)Man(a1-6)]Man(b1-4)GlcNAc(b1-4)GlcNAc
How it was run: as §1

[42] = molecular target: Neu5Ac(a2-6)Gal(b1-4)GlcNAc(b1-2)Man(a1-3)[GlcNAc(b1-4)][Neu5Ac(a2-6)Gal(b1-4)GlcNAc(b1-2)Man(a1-6)]Man(b1-4)GlcNAc(b1-4)GlcNAc
How it was run: as §1

B1: EULS2 M2 (Oryza sativa) (protein)
chain: MVYCRANPNYAMTARNGAVVLAPANPKDEYQHWIKDMRWSTSIKDEEGYPAFALVNKATGQAIKHSLGQSHPVRLVPYNPEVMDESVLWTESRDVGNGFRCIRMVNNIYLNFDAFHGDKYHGGVRDGTDIVLWKLCEGDSQRWKIQPYYILEQKLISEEDLNSAVDHHHHHH
With B1 the “glycan array binding signal (z-score)” value [1] was -0.387, the “glycan array binding signal (z-score)” value [2] was 0.257 and the “glycan array binding signal (z-score)” value [3] was -0.623. For the same binder, the “glycan array binding signal (z-score)” value [4] was 0.295, the “glycan array binding signal (z-score)” value [5] was -0.404 and the “glycan array binding signal (z-score)” value [6] was -0.644. For the same binder, the “glycan array binding signal (z-score)” value [7] was -0.051, the “glycan array binding signal (z-score)” value [8] was -0.585 and the “glycan array binding signal (z-score)” value [9] was -0.26. For the same binder, the “glycan array binding signal (z-score)” value [10] was -0.327, the “glycan array binding signal (z-score)” value [11] was -0.484 and the “glycan array binding signal (z-score)” value [12] was -0.247. The “glycan array binding signal (z-score)” value [13] was -0.328, the “glycan array binding signal (z-score)” value [14] was -0.581 and the “glycan array binding signal (z-score)” value [15] was -0.255. For the same binder, the “glycan array binding signal (z-score)” value [16] was 0.243, the “glycan array binding signal (z-score)” value [17] was -0.583 and the “glycan array binding signal (z-score)” value [18] was -0.495. The “glycan array binding signal (z-score)” value [19] was -0.616, the “glycan array binding signal (z-score)” value [20] was -0.305 and the “glycan array binding signal (z-score)” value [21] was -0.102. For the same binder, the “glycan array binding signal (z-score)” value [22] was -0.23, the “glycan array binding signal (z-score)” value [23] was -0.283 and the “glycan array binding signal (z-score)” value [24] was -0.216. The “glycan array binding signal (z-score)” value [25] was -0.545, the “glycan array binding signal (z-score)” value [26] was -0.019 and the “glycan array binding signal (z-score)” value [27] was 2.53. The “glycan array binding signal (z-score)” value [28] was -0.153, the “glycan array binding signal (z-score)” value [29] was -0.449 and the “glycan array binding signal (z-score)” value [30] was -0.308. The “glycan array binding signal (z-score)” value (Neu5Ac(a2-3)GalNAc) was -0.307, the “glycan array binding signal (z-score)” value [31] was -0.223 and the “glycan array binding signal (z-score)” value [32] was -0.362. The “glycan array binding signal (z-score)” value [33] was -0.347, the “glycan array binding signal (z-score)” value [34] was -0.241 and the “glycan array binding signal (z-score)” value [35] was -0.612. The “glycan array binding signal (z-score)” value (Neu5Ac(a2-6)Gal) was -1.17, the “glycan array binding signal (z-score)” value [36] was -0.511 and the “glycan array binding signal (z-score)” value (Neu5Ac(a2-6)Gal(b1-4)Glc) was -0.175. For the same binder, the “glycan array binding signal (z-score)” value [37] was -0.4, the “glycan array binding signal (z-score)” value [38] was -0.673 and the “glycan array binding signal (z-score)” value [39] was 0.27. The “glycan array binding signal (z-score)” value [40] was -0.121, the “glycan array binding signal (z-score)” value [41] was 0.47 and the “glycan array binding signal (z-score)” value [42] was -0.19.
